Data published in the supplement of paper PMC4604168 (melanoma cell lines).
The other results are listed elsewhere or left out. Repeats are few or missing, and single values can be far off.

Experiments:
Assay in all cases: cell count relative to DMSO control; melanoma cells; higher = more viable cells
Details in all cases: library dose: standard library concentration; 72 h
A101D = tested on: A101D
A2058 = tested on: A2058
A375 = tested on: A375
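Further: cells treated in 1,536-well plates, then fixed and DAPI-stained, with nuclei counted from automated high-throughput microscope images.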

**Q.** Which cell count (A101D) does the source give for `CS(=O)(=O)c1ccc(C(=O)Nc2ccc(Cl)c(-c3ccccn3)c2)c(Cl)c1` [vismodegib] + NC1(c2ccc(-c3nc4ccn5c(=O)[nH]nc5c4cc3-c3ccccc3)cc2)CCC1 [MK2206] (first compound 5 µM, partner dose 2 µM) here?
**A.** The cell count was 93.6%.

**Q.** What about the cell count (A2058) of the same molecule?
**A.** Its cell count is 76.2%.

**Q.** And the cell count (A375)?
**A.** Its cell count is 102%.

**Q.** For `CS(=O)(=O)c1ccc(C(=O)Nc2ccc(Cl)c(-c3ccccn3)c2)c(Cl)c1` [vismodegib] + C=CCNC1=C2C[C@@H](C)C[C@H](OC)[C@H](O)[C@@H](C)/C=C(\C)[C@H](OC(N)=O)[C@@H](OC)/C=C\C=C(/C)C(=O)NC(=CC1=O)C2=O [Tanespimycin] (first compound 5 µM, partner dose 0.01 µM), which cell count (A101D) is on record?
**A.** The cell count was 81.5%.

**Q.** What about the cell count (A2058) of the same molecule?
**A.** Its cell count is 91.9%.

**Q.** What about the cell count (A375) of the same molecule?
**A.** Its cell count is 102%.

**Q.** Which results are given for `CS(=O)(=O)c1ccc(C(=O)Nc2ccc(Cl)c(-c3ccccn3)c2)c(Cl)c1` [vismodegib] + CCCCCCCCc1ccc(CCC(N)(CO)CO)cc1 [fingolimod] (first compound 5 µM, partner dose 10 µM)?
**A.** cell count (A101D): 6.35%; cell count (A2058): 8.35%; cell count (A375): 29.7%

**Q.** How did the cell count (A101D) turn out when `CS(=O)(=O)c1ccc(C(=O)Nc2ccc(Cl)c(-c3ccccn3)c2)c(Cl)c1` [vismodegib] + NC(=O)Nc1cc(-c2cccc(F)c2)sc1C(=O)N[C@H]1CCCNC1 [AZD7762] (first compound 5 µM, partner dose 0.1 µM) was run?
**A.** Its cell count is 70%.

**Q.** What about the cell count (A2058) of the same molecule?
**A.** Its cell count is 75.7%.

**Q.** What about the cell count (A375) of the same molecule?
**A.** Its cell count is 52.6%.

**Q.** Which results are given for `NC1(c2ccc(-c3nc4ccn5c(=O)[nH]nc5c4cc3-c3ccccc3)cc2)CCC1` + C[C@@H](Oc1cc(-c2cnn(C3CCNCC3)c2)cnc1N)c1c(Cl)ccc(F)c1Cl [Crizotinib] (first compound 2 µM, partner dose 1 µM)?
**A.** cell count (A101D): 74.1%; cell count (A2058): 50.7%; cell count (A375): 98.6%

**Q.** Which results are given for `NC1(c2ccc(-c3nc4ccn5c(=O)[nH]nc5c4cc3-c3ccccc3)cc2)CCC1` + CC(C)C[C@H](NC(=O)[C@H](Cc1ccccc1)NC(=O)c1cnccn1)B(O)O [Bortezomib] (first compound 2 µM, partner dose 0.005 µM)?
**A.** cell count (A101D): 15.7%; cell count (A2058): 12.8%; cell count (A375): 74.2%
